# Assay results reported in patent EP4643870A1, “PEPTIDE AND USE THEREOF” (Stemrim Inc., priority 2022, dated 2024).
# Not every detail of the peptide structures is certain; ends, links or a residue may be inferred. Some entries repeat one wording, which the source may state once for all of them. Where no end group is shown, it is not given here.
# Key:
# Assay type in all cases: in vivo, Male C57BL/6J Jcl mice
# [1] = tested on: mouse model of traumatic brain injury; experiment: Beam balance test (motor function) in traumatic brain injury model mice; settings: for motor function following traumatic brain injury: hydrochloride salts, tested in the same manner as in Example 5 (subacute stage, single dose via the tail vein on the 14th day after TBI surgery)
# [2] = tested on: mouse model of traumatic brain injury; experiment: Rotarod test (motor function) in traumatic brain injury model mice; settings: chronic stage (Example 3); peptide (trifluoroacetate) 3 mg/kg (approx. 0.5 µmol/kg) via the tail vein, 16 doses starting on day 48 after TBI surgery; vs control group; ** p < 0.01, *** p < 0.001; Fig. 4
# [3] = tested on: mouse model of severe traumatic brain injury (TBI); experiment: Beam balance test in severe traumatic brain injury model mice; settings: severe TBI (Example 4, impactor depth 2.0 mm); peptide (hydrochloride) 1.39 mg/kg (approx. 0.3 µmol/kg) via the tail vein, 16 doses starting on day 32 after TBI surgery; vs control group; figure not shown
# [4] = tested on: mouse model of severe traumatic brain injury (TBI); experiment: Rotarod test in severe traumatic brain injury model mice; settings: severe TBI (Example 4, impactor depth 2.0 mm); peptide (hydrochloride) 1.39 mg/kg (approx. 0.3 µmol/kg) via the tail vein, 16 doses starting on day 32 after TBI surgery; vs control group; figure not shown
# [5] = tested on: mouse model of severe traumatic brain injury (TBI); experiment: Y-maze test (memory function) in severe traumatic brain injury model mice; settings: severe TBI (Example 4, impactor depth 2.0 mm); peptide (hydrochloride) 1.39 mg/kg (approx. 0.3 µmol/kg) via the tail vein, 16 doses starting on day 32 after TBI surgery; vs control group; Fig. 6
sequence,measurement,setting,value
FKDHKHIDVKDRHRTRHLAKTRAYHIDPHH [SEQ ID NO: 15],motor function following traumatic brain injury,[1],trend toward improvement in motor function
FKDHKHIDVKDRHRTRHLAKTRCYHIDPHH [SEQ ID NO: 1],latency to traverse the beam,"[1]; acute stage (Example 1), peptide (hydrochloride) 1.39 mg/kg (approx. 0.3 µmol/kg) once three hours after TBI surgery, vs control group (saline), * p < 0.05, ** p < 0.01, Fig. 1-2",Significant reductions
same,number of slips,"[1]; acute stage (Example 1), peptide (hydrochloride) 1.39 mg/kg (approx. 0.3 µmol/kg) once three hours after TBI surgery, vs control group (saline), * p < 0.05, Fig. 1-1",Significant reductions
same,latency to traverse the beam,"[1]; chronic stage (Example 3), peptide (trifluoroacetate) 3 mg/kg (approx. 0.5 µmol/kg) via the tail vein, 16 doses starting on day 48 after TBI surgery, vs control group, ** p < 0.01, *** p < 0.001, Fig. 3-2",significant reductions
same,number of slips,"[1]; chronic stage (Example 3), peptide (trifluoroacetate) 3 mg/kg (approx. 0.5 µmol/kg) via the tail vein, 16 doses starting on day 48 after TBI surgery, vs control group, *** p < 0.001, Fig. 3-1",significant reductions
same,latency to traverse the beam,"[1]; subacute stage (Example 2), peptide (trifluoroacetate) 1.77 mg/kg (approx. 0.3 µmol/kg) single dose via the tail vein on the 14th day after TBI surgery, vs control group, * p < 0.05, ** p < 0.01, Fig. 2-2",Significant reductions
same,number of slips,"[1]; subacute stage (Example 2), peptide (trifluoroacetate) 1.77 mg/kg (approx. 0.3 µmol/kg) single dose via the tail vein on the 14th day after TBI surgery, vs control group, ** p < 0.01, Fig. 2-1",Significant reductions
same,time spent on the rotor,[2],significant increase
same,latency to traverse the beam,[3],significant reductions
same,number of slips,[3],significant reductions
same,time spent on the rotor,[4],significant increase
same,memory function (alternation (%) in the Y-maze test),[5],trend toward recovery of memory function
FKDHKHIDVKDRHRTRHLAKTRCYHIPHH [SEQ ID NO: 9],motor function following traumatic brain injury,[1],trend toward improvement in motor function
FKDHKHIDVKDRHRTRHLAKTRSYHIDPHH [SEQ ID NO: 13],motor function following traumatic brain injury,[1],trend toward improvement in motor function
FKDHKHIDVKDRHRTRHLAKTRTYHIDPHH [SEQ ID NO: 17],motor function following traumatic brain injury,[1],trend toward improvement in motor function
FKDHKHIDVKRHRTRHLAKTRCYHIDPHH [SEQ ID NO: 7],motor function following traumatic brain injury,[1],trend toward improvement in motor function
FKDHKHIVKDRHRTRHLAKTRCYHIDPHH [SEQ ID NO: 5],motor function following traumatic brain injury,[1],trend toward improvement in motor function
FKDHKHIVKRHRTRHLAKTRCYHIPHH [SEQ ID NO: 25],motor function following traumatic brain injury,[1],trend toward improvement in motor function
FKDKHIDVKDRHRTRHLAKTRCYHIDPHH [SEQ ID NO: 11],motor function following traumatic brain injury,[1],trend toward improvement in motor function
FKHKHIDVKDRHRTRHLAKTRCYHIDPHH [SEQ ID NO: 3],number of slips,"[1]; subacute stage (Example 5), peptide (hydrochloride) 1.28 mg/kg (approx. 0.3 µmol/kg) single dose via the tail vein on the 14th day after TBI surgery, vs control group, * p < 0.05, ** p < 0.01, Fig. 7-1",significant reductions
same,latency to traverse the beam,"[1]; subacute stage (Example 5), peptide (hydrochloride) 1.28 mg/kg (approx. 0.3 µmol/kg) single dose via the tail vein on the 14th day after TBI surgery, vs control group, * p < 0.05, ** p < 0.01, Fig. 7-2",significant reductions
FKHKHIDVKRHRTRHLAKTRCYHIPHH [SEQ ID NO: 23],motor function following traumatic brain injury,[1],trend toward improvement in motor function
FKHKHIVKDRHRTRHLAKTRCYHIPHH [SEQ ID NO: 21],motor function following traumatic brain injury,[1],trend toward improvement in motor function
FKHKHIVKRHRTRHLAKTRCYHIDPHH [SEQ ID NO: 19],motor function following traumatic brain injury,[1],trend toward improvement in motor function
FKHKHIVKRHRTRHLAKTRCYHIPHH [SEQ ID NO: 27],motor function following traumatic brain injury,[1],trend toward improvement in motor function
